Assay results published in PubChem BioAssay (Tox21).
Several values for one entry are separate records, joined by “and”; a condition that tells them apart may be missing. Identical values can stand only once. The inconclusive results got no clear call from the source; some entries with a clear call stand among them for comparison. For part of these data: Potencies of inconclusive entries are doubtful fits and often do not repeat. Activity calls are given as the source filed them. Unless noted, the call rests on the fitted dose curve; in most records, active means well fitted curve in the direction sought with a large enough effect in the repeat runs; inconclusive means weak or mixed curves; inactive means no such curve, though single readings can be large; an effect the other way counts as inactive or inconclusive.

Tests used:
[1] = qHTS assay to identify small molecule that activate the aryl hydrocarbon receptor (AhR) signaling pathway - cell viability counter screen (AID 743086); further: nearly all actives have a fitted effect of over 45% in size
In short: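 Cytotoxicity counter screen: CellTiter-Fluor signal (30 min, 37 C) in 4000 HepG2 cells/well carrying the DRE-luciferase reporter, following 24 h compound exposure at 37 C.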

[2] = molecular target: Peroxisome proliferator-activated receptor gamma (Homo sapiens) (UniProt P37231); experiment: qHTS assay to identify small molecule antagonists of the peroxisome proliferator-activated receptor gamma (PPARg) signaling pathway (AID 743191; calls by dose curve; further: nearly all actives have a fitted effect of over 30% in size; on ratio activity, negative = inhibition: on the % scale 0 is the no-effect control and ±100 the full control effect); conditions: HEK293H PPARg-UAS-bla, beta-lactamase ratio, antagonist, 17 h; ratio activity, negative = inhibition: at 62.6 µM (top of the series) unless noted
In short: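 Beta-lactamase reporter under UAS control in HEK293H PPARg-bla cells; compound treatment 17 h at 37C. Read-out: fluorescence intensity after 1 h room-temperature incubation with LiveBLAzer B/G FRET substrate.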

[3] = qHTS assay to identify small molecule antagonists of the peroxisome proliferator-activated receptor gamma (PPARg) signaling pathway - cell viability counter screen (AID 743194); conditions: PPARg-bla HEK293H viability, CellTiter-Glo luminescence, 17 h, co-treated with 50 nM rosiglitazone; activity change, negative = cytotoxicity: at 62.6 µM (top of the series) unless noted; further: nearly all actives have a fitted effect of over 55% in size
In short: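 Viability was measured as CellTiter-Glo luminescence in GeneBLAzer PPARg UAS-bla HEK293H cells. These cells had been exposed 17 h at 37 C to compounds together with rosiglitazone at 50 nM final, with the beta-lactamase readout taken in the same wells.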

[4] = qHTS assay for small molecule agonists of the antioxidant response element (ARE) signaling pathway (AID 743202; active means well fitted activation curve with a large enough effect in the signal ratio in the repeat runs, not every such curve was filed as active; inconclusive means weak or mixed curves, or effect the other way; inactive means no such curve, though single readings can be large or run the other way; the % refers to the signal ratio); conditions: HepG2 ARE-bla reporter, beta-lactamase FRET, 16 h; activation: at 73.3 µM (top of the series) unless noted
In short: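 Quantitative high-throughput format in HepG2 cells bearing an integrated ARE-beta-lactamase reporter. Compound exposure lasted 16 h at 37 C, and fluorescence was read 2 h after adding LiveBLAzer B/G substrate at room temperature.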

[5] = qHTS assay for small molecule activators of the heat shock response signaling pathway - cell viability counter screen (AID 743209); conditions: HSE-bla HeLa viability, CellTiter-Glo luminescence, 5 h; activity change, negative = cytotoxicity: at 62.6 µM (top of the series) unless noted; further: nearly all actives have a fitted effect of over 50% in size
In short: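 HSE-bla HeLa cells plated overnight, then exposed to Tox21 compounds (23 nL in DMSO) for 5 h at 37 C. After the bla reporter read, CellTiter-Glo was added in the same wells and luminescence read after 30 min at room temperature.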

[6] = molecular target: Peroxisome proliferator-activated receptor delta (Homo sapiens) (UniProt Q03181); experiment: qHTS assay to identify small molecule agonists of the peroxisome proliferator-activated receptor delta (PPARd) signaling pathway (AID 743212; calls by dose curve; on activation: on the % scale 0 is the no-effect control and ±100 the full control effect); conditions: HEK293H PPARd-UAS-bla, beta-lactamase FRET ratio, 17 h; activation: at 62.6 µM (top of the series) unless noted
In short: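 HEK293H PPARd-bla cells; 5 h preincubation 37 C/5% CO2; compound (DMSO) 37 C; LiveBLAzer B/G FRET substrate 2 h RT; fluorescence intensity.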

[7] = qHTS assay to identify small molecule antagonists of the peroxisome proliferator-activated receptor delta (PPARd) signaling pathway - cell viability counter screen (AID 743213); conditions: PPARd-bla HEK293H viability, CellTiter-Glo luminescence, 17 h; viability change, negative = cytotoxic: at 62 µM (top of the series) unless noted; further: nearly all actives have a fitted effect of over 50% in size
In short: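 PPARd-bla HEK293H cells (3000/well) got compound plus 300 nM L165041 agonist for 17 h at 37 C. Viability in the same wells came from CellTiter-Glo luminescence after 30 min at room temperature.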

[8] = molecular target: Peroxisome proliferator-activated receptor delta (Homo sapiens) (UniProt Q03181); experiment: qHTS assay to identify small molecule antagonists of the peroxisome proliferator-activated receptor delta (PPARd) signaling pathway (AID 743215; active means well fitted inhibition curve with a large enough effect in the signal ratio in the repeat runs, not every such curve was filed as active; inconclusive means weak or mixed curves, or effect the other way; inactive means no such curve, though single readings can be large or run the other way; the % refers to the signal ratio;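 further: cells stimulated with agonist L165041 at 300 nM final during compound exposure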); conditions: HEK293H PPARd-UAS-bla, beta-lactamase FRET ratio, antagonist, 17 h; ratio activity, negative = inhibition: at 62 µM (top of the series) unless noted
In short: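 PPARd-bla HEK293H cells (UAS-bla reporter) preincubated 5 h, then given compound plus 300 nM final L165041 agonist for 17 h at 37 C. Beta-lactamase activity read by LiveBLAzer B/G FRET substrate fluorescence after 2 h at room temperature.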

[9] = molecular target: Bile acid receptor (Homo sapiens) (UniProt Q96RI1); experiment: qHTS assay to identify small molecule antagonists of the farnesoid-X-receptor (FXR) signaling pathway (AID 743217; active means well fitted inhibition curve with a large enough effect in the signal ratio in the repeat runs, not every such curve was filed as active; inconclusive means weak or mixed curves, or effect the other way; inactive means no such curve, though single readings can be large or run the other way; the % refers to the signal ratio); conditions: HEK293T FXR-UAS-bla, beta-lactamase ratio, CDCA-stimulated, 16 h; activity change, negative = inhibition: at 62.6 µM (top of the series) unless noted
In short: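 FXR-UAS-bla HEK 293T cells (beta-lactamase reporter) given compound plus chenodeoxycholic acid (50 uM final), 16 h at 37C. LiveBLAzer B/G FRET substrate added for 2 h at room temperature; fluorescence read.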

[10] = qHTS assay to identify small molecule agonists of the farnesoid-X-receptor (FXR) signaling pathway - cell viability counter screen (AID 743218); conditions: FXR-bla HEK293T viability, CellTiter-Glo luminescence, 16 h; viability change, negative = cytotoxic: at 62.6 µM (top of the series) unless noted; further: nearly all actives have a fitted effect of over 45% in size
In short: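 FXR-UAS-bla HEK 293T cells exposed to compounds for 16 h at 37C. Cytotoxicity read in the same wells by CellTiter-Glo luminescence after 30 min at room temperature, following the beta-lactamase FRET read.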

[11] = molecular target: Bile acid receptor (Homo sapiens) (UniProt Q96RI1); experiment: qHTS assay to identify small molecule agonists of the farnesoid-X-receptor (FXR) signaling pathway (AID 743220; active means well fitted activation curve with a large enough effect in the signal ratio in the repeat runs, not every such curve was filed as active; inconclusive means weak or mixed curves, or effect the other way; the % refers to the signal ratio; on activation: on the % scale 0 is the no-effect control and ±100 the full control effect); conditions: HEK293T FXR-UAS-bla, beta-lactamase FRET ratio, 16 h; activation: at 62.6 µM (top of the series) unless noted
In short: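 Beta-lactamase reporter under UAS control in GeneBLAzer FXR HEK 293T cells (5000/well) measured with LiveBLAzer FRET substrate after 2 h at room temperature. Compound exposure lasted 16 h at 37C.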

[12] = molecular target: Vitamin D3 receptor (Homo sapiens) (UniProt P11473); experiment: qHTS assay to identify small molecule agonists of the vitamin D receptor (VDR) signaling pathway (AID 743222; calls by dose curve; on activation: on the % scale 0 is the no-effect control and ±100 the full control effect); conditions: HEK293T VDR-UAS-bla, beta-lactamase FRET ratio, 16 h; activation: at 63.5 µM (top of the series) unless noted
In short: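 VDR-bla cells plated 4 h at 37 C, then exposed to compounds for 16 h at 37 C. Beta-lactamase reporter activity measured by fluorescence after 2 h room-temperature loading with LiveBLAzer B/G FRET substrate.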

[13] = molecular target: Vitamin D3 receptor (Homo sapiens) (UniProt P11473); experiment: qHTS assay to identify small molecule antagonists of the vitamin D receptor (VDR) signaling pathway (AID 743223; active means well fitted inhibition curve with a large enough effect in the signal ratio in the repeat runs, not every such curve was filed as active; inconclusive means weak or mixed curves, or effect the other way; inactive means no such curve, though single readings can be large or run the other way; the % refers to the signal ratio); conditions: VDR-UAS-bla HEK293T, beta-lactamase FRET ratio, 16 h
In short: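 Cells carrying a VDR-driven beta-lactamase reporter (VDR-bla) were co-treated with compound and 3 nM final 1alpha,25-dihydroxyvitamin D3 for 16 h at 37C; reporter activity was measured as FRET substrate fluorescence after 2 h at room temperature.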

[14] = qHTS assay to identify small molecule agonists of the vitamin D receptor (VDR) signaling pathway - cell viability counter screen (AID 743224); conditions: VDR-bla HEK293T viability, CellTiter-Glo luminescence, 16 h; activity change, negative = cytotoxicity: at 62.6 µM (top of the series) unless noted; further: nearly all actives have a fitted effect of over 50% in size
In short: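 VDR-bla cells, 4 h after plating, exposed to compounds for 16 h at 37C; viability then read in the same wells as CellTiter-Glo luminescence after 30 min at room temperature, following the bla FRET read.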

[15] = qHTS assay for small molecule activators of the heat shock response signaling pathway (AID 743210; active means well fitted activation curve with a large enough effect in the signal ratio in the repeat runs, with a control signal flat, not every such curve was filed as active; inconclusive means weak or mixed curves; the % refers to the signal ratio); conditions: HeLa HSE-bla reporter, beta-lactamase ratio, 5 h; activation: at 62.6 µM (top of the series)
In short: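 HeLa HSE-bla cells, overnight plating; cpd in DMSO 5 h, 37 C; LiveBLAzer B/G FRET substrate 2.5 h RT; fluorescence intensity read.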

[16] = qHTS assay to identify small molecule antagonists of the farnesoid-X-receptor (FXR) signaling pathway - cell viability counter screen (AID 743221; active means well fitted cell-killing curve with a large enough effect in the repeat runs, not every such curve was filed as active; inconclusive means weak or mixed curves, or effect the other way; inactive means no such curve, though single readings can be large or run the other way; further: nearly all actives have a fitted effect of over 50% in size); conditions: FXR-bla HEK293T viability, CellTiter-Glo luminescence, 16 h; activity change, negative = cytotoxicity: at 62.6 µM (top of the series)
In short: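 Multiplexed counter screen: viability of FXR-bla HEK 293T cells under agonist stimulation by chenodeoxycholic acid (50 uM, final) and test compound for 16 h at 37 C, measured by CellTiter-Glo luminescence in the reporter wells.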

[17] = qHTS assay to identify small molecule antagonists of the vitamin D receptor (VDR) signaling pathway - cell viability counter screen (AID 743225); conditions: VDR-bla HEK293T viability, CellTiter-Glo luminescence, 16 h; viability change, negative = cytotoxic: at 61 µM (top of the series) unless noted; further: nearly all actives have a fitted effect of over 50% in size
In short: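 HEK293T VDR-bla; cpd + 1a,25-(OH)2D3 3 nM final, 16 h 37C/5% CO2; B/G FRET substrate 2 h RT; then CellTiter-Glo 30 min RT, luminescence.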

[18] = qHTS assay for small molecule agonists of the antioxidant response element (ARE) signaling pathway - cell viability counter screen (AID 743203; calls by dose curve; further: nearly all actives have a fitted effect of over 55% in size); conditions: ARE-bla HepG2 viability, CellTiter-Glo luminescence, 16 h; viability change, negative = cytotoxic: at 73.3 µM (top of the series)
In short: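 ARE-bla HepG2 cells were plated, rested 5 h at 37C/5% CO2, then exposed to compounds in DMSO for 16 h. Viability was read as CellTiter-Glo luminescence after 30 min at room temperature, in the same wells as the ARE screen.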

[19] = activity change, negative = inhibition: at 61 µM (top of the series) unless noted
Potency means the concentration at half of the fitted maximal effect; tags describe the fitted curve by direction and shape or compound fluorescence and quenching.

Chain of UniProt Q03181 (Q03181 whole entry, looked up): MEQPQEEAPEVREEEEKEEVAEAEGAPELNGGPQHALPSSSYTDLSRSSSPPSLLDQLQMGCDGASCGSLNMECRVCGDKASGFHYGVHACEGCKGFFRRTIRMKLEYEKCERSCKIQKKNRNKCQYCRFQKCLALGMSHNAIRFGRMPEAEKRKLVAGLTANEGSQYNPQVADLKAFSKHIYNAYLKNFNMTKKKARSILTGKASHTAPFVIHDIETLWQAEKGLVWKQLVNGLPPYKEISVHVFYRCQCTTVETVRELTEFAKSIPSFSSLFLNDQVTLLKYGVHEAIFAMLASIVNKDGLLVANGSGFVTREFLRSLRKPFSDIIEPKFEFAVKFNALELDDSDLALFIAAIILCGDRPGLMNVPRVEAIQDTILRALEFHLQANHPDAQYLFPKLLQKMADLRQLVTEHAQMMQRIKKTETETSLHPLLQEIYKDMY
Chain of UniProt P37231 (P37231 whole entry, looked up): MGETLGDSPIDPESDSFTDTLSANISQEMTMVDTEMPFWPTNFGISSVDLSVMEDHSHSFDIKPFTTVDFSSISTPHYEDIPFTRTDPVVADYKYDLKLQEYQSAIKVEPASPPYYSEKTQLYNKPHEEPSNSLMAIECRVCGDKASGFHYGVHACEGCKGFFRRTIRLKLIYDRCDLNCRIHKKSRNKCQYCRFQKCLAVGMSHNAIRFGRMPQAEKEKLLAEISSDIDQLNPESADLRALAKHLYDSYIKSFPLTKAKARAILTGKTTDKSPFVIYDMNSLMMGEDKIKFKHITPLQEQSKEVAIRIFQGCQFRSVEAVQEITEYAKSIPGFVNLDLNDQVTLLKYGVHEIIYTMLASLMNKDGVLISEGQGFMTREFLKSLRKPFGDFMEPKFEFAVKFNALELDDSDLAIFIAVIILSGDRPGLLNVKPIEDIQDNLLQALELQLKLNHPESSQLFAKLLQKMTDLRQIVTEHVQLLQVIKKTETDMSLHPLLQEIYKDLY
Chain of UniProt Q96RI1 (Q96RI1 whole entry, looked up): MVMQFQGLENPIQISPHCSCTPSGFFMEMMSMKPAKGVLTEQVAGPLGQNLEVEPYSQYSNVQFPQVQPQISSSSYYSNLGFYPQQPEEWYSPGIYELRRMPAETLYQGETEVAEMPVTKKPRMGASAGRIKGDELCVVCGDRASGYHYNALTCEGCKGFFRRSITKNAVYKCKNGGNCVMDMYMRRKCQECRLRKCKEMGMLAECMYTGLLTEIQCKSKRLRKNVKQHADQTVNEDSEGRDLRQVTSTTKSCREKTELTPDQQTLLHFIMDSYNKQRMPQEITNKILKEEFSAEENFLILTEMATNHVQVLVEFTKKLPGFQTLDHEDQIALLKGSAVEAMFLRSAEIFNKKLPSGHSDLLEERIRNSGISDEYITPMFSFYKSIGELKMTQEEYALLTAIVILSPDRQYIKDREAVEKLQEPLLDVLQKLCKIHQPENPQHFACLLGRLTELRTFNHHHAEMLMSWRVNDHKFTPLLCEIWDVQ
Chain of UniProt P11473 (P11473 whole entry, looked up): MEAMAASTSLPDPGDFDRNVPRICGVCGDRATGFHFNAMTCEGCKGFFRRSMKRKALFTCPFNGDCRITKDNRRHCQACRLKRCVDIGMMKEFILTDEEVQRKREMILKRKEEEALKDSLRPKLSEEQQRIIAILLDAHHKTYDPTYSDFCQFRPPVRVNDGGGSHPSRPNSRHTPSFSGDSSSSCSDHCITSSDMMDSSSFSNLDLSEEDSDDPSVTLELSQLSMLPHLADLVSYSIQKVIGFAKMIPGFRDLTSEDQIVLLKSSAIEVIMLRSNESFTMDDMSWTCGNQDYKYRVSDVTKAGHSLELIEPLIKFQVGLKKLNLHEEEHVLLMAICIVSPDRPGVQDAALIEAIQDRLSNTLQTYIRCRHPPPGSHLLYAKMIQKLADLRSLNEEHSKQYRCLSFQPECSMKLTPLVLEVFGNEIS

CCCCCCCCn1sc(Cl)c(Cl)c1=O
inconclusive: Potency [1] 19.3 µM | Potency [4] 2.73 µM [falling, full curve] | Potency [5] 4.36 µM [cytotoxic, full curve] | activation [6] 17.5% | Potency [8] 49 µM [inhibitor] | Potency [11] 15.5 µM [falling, partial curve, poor fit] | activation [12] 1.39% | Potency [13, 19] 54.9 µM [rising, partial curve, poor fit]
active: Potency [2] 49 µM | Potency [3] 21.9 µM | Potency [7] 3.89 µM | Potency [9] 43.6 µM | Potency [10] 4.36 µM | Potency [14] 2.75 µM

CCCCc1oc2ccc(NS(C)(=O)=O)cc2c1C(=O)c1ccc(OCCCN(CCCC)CCCC)cc1
active: Potency [1] 26.6 µM | Potency [7] 23.7 µM | Potency [10] 26.6 µM | Potency [14] 26.6 µM | Potency [17] 23.9 µM
inconclusive: Potency [2] 33.5 µM [cytotoxic, single point] | Potency [4] 33.5 µM [falling, single point] | Potency [15] 29.8 µM [partial curve] | Potency [6] 10.6 µM [rising, single point] | Potency [8] 33.5 µM [inhibitor, single point] | Potency [9] 33.5 µM | activation [11] 13.4% | Potency [16] 33.5 µM [falling, single point] | Potency [13, 19] 26.8 µM [single point]

COc1ccc(CN2CCN(C(c3ccc(F)cc3)c3ccc(F)cc3)CC2)c(OC)c1OC
inconclusive: Potency [1] 37.6 µM [falling, single point] | Potency [4] 29.8 µM [rising, partial curve, poor fit] | Potency [6] 33.5 µM | Potency [8] 33.5 µM [single point] | Potency [9] 29.8 µM [partial curve] | Potency [13, 19] 26.8 µM
active: Potency [2] 26.6 µM | Potency [7] 23.7 µM | Potency [10] 21.1 µM | Potency [16] 29.8 µM | Potency [17] 16.9 µM

CC=O
inconclusive: Potency [1] 71.7 µM [falling, single point] | Potency [2] 18.2 µM [rising, single point] | Potency [4] 71.7 µM [falling, single point] | Potency [6] 57.5 µM [single point] | Potency [8] 28.8 µM [rising, partial curve, poor fit] | Potency [9] 57.5 µM | Potency [11] 64.5 µM [single point] | Potency [12] 10.2 µM [inhibitor, partial curve, poor fit] | Potency [13, 19] 51.3 µM [partial curve]
active: Potency [7] 40.7 µM | Potency [10] 45.7 µM | Potency [16] 64.5 µM | Potency [14] 22.9 µM

CCCCCCCCCCCCCC(=O)OC(C)C
inconclusive: Potency [1] 37.6 µM [falling, partial curve, poor fit] | ratio activity, negative = inhibition [2] -3.12% and 3.92% | activation [4] -1.33% | Potency [18] 13.3 µM [cytotoxic, partial curve, poor fit] | Potency [7] 0.171 µM [cytotoxic, single point] | viability change, negative = cytotoxic [7] -19.8% [cytotoxic] | activity change, negative = inhibition [9] -21.6% | Potency [10] 0.384 µM [rising, partial curve, poor fit] | activity change, negative = inhibition [13, 19] 14.5%
inactive: Potency [11] | activity change, negative = inhibition ([13]; at 61 µM (top of the series)) -8.73% and -7.14%
